Measurements as given in PubChem BioAssay AID1745845 (National Center for Advancing Translational Sciences (NCATS), 2022).
The campaign covered roughly 360,000 compounds. About 2,600 (0.72%) were called active. Inconclusive means that the source gave no clear call. Such entries were picked first, then a sample of the others. Calls come from the whole dose curve; as a rule, active = well fitted inhibition curve with a large enough effect; inconclusive = small, poorly fitted or top-dose-only effect; inactive = no such curve, though single readings can be large or run the other way. Potencies beside an inconclusive call are fits to weak or partial responses and may not hold up.

Test: Primary qHTS for Inhibitors of ATXN expression; note: nearly all actives have a fitted effect of over 55% in size
Settings: HEK-293 ATXN2-luciferase reporter, luminescence, 24 h; activity change, negative = inhibition: at 57 µM (top of the series)
Summary of the method: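 qHTS (up to 57 uM final) was run with 24 h compound exposure of reporter cells at 37 °C. Each well was multiplexed: SteadyGlo luminescence measured ATXN2-luciferase expression after a fluorogenic Gly-Phe-AFC viability readout (25 uM final).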
% is set by controls: 0 for no effect and ±100 for the full control effect; potency is the fitted concentration of half-maximal effect; tags give direction and shape of the fitted curve.

Activity change, negative = inhibition, inactive:
ClN=C1C=CC=CC1=NCl 4.34%
CC(C)c1ccc(C2=CC(c3cccc(Cl)c3)n3ncnc3N2)cc1 (stereo unspecified) 12.1%
COc1cccc(N2CCN(C(=O)c3cc4cc(Cl)ccc4[nH]3)CC2)c1 -7.07%
C[C@]12c3[nH]c4cc(-c5ccco5)ccc4c3CCN1C(=O)[C@@H](CC(=O)NCc1cccc(C(F)(F)F)c1)C[C@@H]2C(=O)N1CCOCC1 0%
CC(NC(=O)c1ccc2nc(CCc3ccccc3)oc2c1)c1ccccc1 (stereo unspecified) 2.18%
C/C(=N\Nc1nc2c(s1)CCCC2)c1ccccc1 85.8%
CCOC(=O)c1sc2nc(C)nc(N3CCN(S(=O)(=O)c4ccccc4)CC3)c2c1C 1.3%
COc1cc(OC)cc(-c2c(-c3cccs3)c3cc(-c4ccc5c(c4)OCO5)ccc3n2C)c1 -9.94%
C=CCOC(=O)CSCC(NC(=O)OC(C)(C)C)C(=O)OCC (stereo unspecified) -24.6%
CCCNC(=O)N1CCN(c2nc(C(C)C)c3c(c2C#N)CC(C)(C)OC3)CC1 6.26%
CN(C)S(=O)(=O)c1cccc(NC(=O)c2ccc(S(=O)(=O)N3CCCCC3)cc2)c1 -6.35%

Activity change, negative = inhibition, inconclusive:
COc1ccc(C(=O)Nc2nc3ccc(OC)cc3s2)cc1 -46.4% [inhibitor]

Potency, active:
COc1ccc(/C=N/Nc2cc(C)nc(-n3nc(C)cc3C)n2)c(OC)c1 15.8 µM
COC(=O)C=C1CCC2C3CCC4=CC(=O)C(Br)CC4(C)C3C(=O)CC12C (stereo unspecified) 31.6 µM

Potency, inconclusive:
CC(C)(C)c1ccccc1NC(=O)Nc1nc(C(N)c2ccccc2)cs1 (stereo unspecified) 28.2 µM [inhibitor, partial curve, poor fit]
Cn1c(/C=C/c2ccc(Br)cc2)c([N+](=O)[O-])c(=O)n(C)c1=O 37.7 µM [inhibitor, single point]
CC1C(=O)N(Cc2cn(CC3CCCCC3)nn2)CCS(=O)(=O)N1Cc1ccc(-c2ccccc2)cc1 (stereo unspecified) 39.8 µM [inhibitor, single point]
O=C(NN=C1CCCC1)c1[nH]c2ccc(Br)cc2c1-c1ccccc1 20 µM [inhibitor, single point]
CCOc1cc(/C=C2\C(=O)ON=C2c2ccccc2)cc(Br)c1O 39.8 µM [inhibitor, single point]
COc1cccc(C2/C(=C(\O)c3ccc4c(c3)OCCO4)C(=O)C(=O)N2CC2CCCO2)c1 (stereo unspecified) 39.8 µM [inhibitor, single point]
COc1ccc(-c2nn3c(-c4cccc(C)c4)nnc3s2)cc1OC 14.1 µM [inhibitor, partial curve]
CCCN1CCN(c2ncnc3sc(C(=O)Nc4ccc(N(CC)CC)cc4C)c(C)c23)CC1 28.2 µM [inhibitor, single point]
CCOC(=O)[C@]12CCC=C1N(Cc1ccc(Cl)cc1Cl)C(=O)[C@H](CC(=O)NCCC(C)C)C2 25.1 µM [inhibitor, single point]
CC(C)(C)NCC(O)COc1ccccc1C1CCCC1 (stereo unspecified) 39.8 µM [inhibitor, single point]
Nc1nc(CN2CCN(c3ccccc3)CC2)nc(Nc2ccc(Cl)cc2)n1 20 µM [inhibitor, partial curve, poor fit]
O=C(c1cc(-c2ccccc2)on1)N(Cc1cccnc1)C(c1ccccn1)c1nc2ccccc2[nH]1 (stereo unspecified) 35.5 µM [inhibitor, single point]
CCOc1ccc(N(Cc2ccccc2)C(=O)c2nc(SC)ncc2Cl)cc1 28.2 µM [inhibitor, single point]
CCOc1ccc(NC(=O)c2cnccn2)cc1 20 µM [inhibitor, single point]
CC1CCN(C(=O)c2cc3nc(-c4ccccc4)cc(-c4ccccc4)n3n2)CC1 39.8 µM [inhibitor, single point]
CCn1c2ccccc2c2cc(NC(=O)COC(=O)c3ccccc3O)ccc21 2.12 µM [inhibitor, partial curve, poor fit]
O=C(Nc1cccc(Cl)c1)OCCOC(=O)Nc1cccc(Cl)c1 31.6 µM [inhibitor, single point]
COc1ccc(C2=NS(=O)(=O)N(C)C(C(=O)N3CCc4ccccc4C3)=C2)cc1OC 28.2 µM [inhibitor, single point]
CC(C)(C)c1nn(-c2ccccc2)c2[nH]c(=O)c(CNCc3ccco3)cc12 35.5 µM [inhibitor, partial curve, poor fit]
CCOC(=O)c1c(NC(=O)COc2ccccc2OCC)sc2c1CC(C)(C)NC2(C)C 39.8 µM [inhibitor, single point]
COc1ccc(CCNC(=O)c2ccc3nc(N4CCCCC4)sc3c2)cc1OC 39.8 µM [inhibitor, single point]
N#Cc1c(N2CCN(C(=O)c3ccco3)CC2)nc(-c2ccccc2)c2c1CCCC2 28.2 µM [inhibitor, single point]
CCN(CC)CCn1c(=N)n(CC(=O)c2ccc(Br)s2)c2ccccc21 39.8 µM [inhibitor, partial curve, poor fit]
O=C(C1CC1)N1CCc2cc(Br)cc(S(=O)(=O)Nc3ccc(F)c(F)c3)c21 35.5 µM [inhibitor, partial curve, poor fit]
Cc1ccc(C)c(OCCn2cc(/C=C(\C#N)C(=O)NCc3ccco3)c3ccccc32)c1 8.91 µM [inhibitor, partial curve, poor fit]
Cc1ccc(C(NC(=O)C2CCN(Cc3ccc(Cl)c(Cl)c3)CC2)c2ccccn2)cc1 (stereo unspecified) 25.1 µM [inhibitor, partial curve, poor fit]
Cc1ccc(SSc2cc(C)ccc2N)c(N)c1 39.8 µM [inhibitor, single point]
